PubChem BioAssay AID485364 (National Center for Advancing Translational Sciences (NCATS), 2010)
The whole screen tested about 360,000 compounds, of which about 11,000 (3.1%) were called active. The shares of active, inactive and inconclusive entries below differ from those in the screen. Calls come from the whole dose curve; as a rule, active = well fitted inhibition curve with a large enough effect; inconclusive = small, poorly fitted or top-dose-only effect; inactive = no such curve, though single readings can be large or run the other way. Potencies of inconclusive entries are left out as doubtful fits.
Note: nearly all actives have a fitted effect of over 60% in size.
Potency is the fitted concentration of half-maximal effect; tags give direction and shape of the fitted curve.

The molecules below were run against Schistosoma mansoni thioredoxin glutathione reductase (TGR) (UniProt Q962Y6) (assay: qHTS Assay for the Inhibitors of Schistosoma Mansoni Peroxiredoxins). Conditions: purified TGR, DTNB reduction, TNB absorbance 405 nm; series mostly up to 114 µM.
Method in brief: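 First, TGR (20 nM dispensed) and NADPH were mixed with compound. Second, a 15 min room-temperature incubation followed. Third, further NADPH and then DTNB were added to start the reaction. Finally, TNB absorbance was monitored kinetically.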
In the case of `CCSc1cc(C2C(C(=O)OC)=C(C)NC3=C2C(=O)CCC3)c(C)o1` (stereo not given), the Potency is reported as inconclusive [inhibitor, partial curve]. For `CCS(=O)(=O)c1ncc(Cl)c(C(=O)NCc2ccccc2)n1`, the Potency was active: 31.6 µM. In the case of `O=C(NN1C(=O)C2C3C=CC(O3)C2C1=O)c1cccc(O)c1` (stereo not given), the Potency is reported as active: 20 µM. `O=C(Nc1cnccn1)c1ccc(F)cc1Cl` was tested, and the Potency was inconclusive [inhibitor, partial curve, poor fit]. `O=c1[nH]c(=O)n(-c2cccc(Cl)c2)c(O)c1/C=N/c1ccccn1` was tested, and the Potency was active: 79.4 µM. For `CN(C)CCNC(=O)/C(=C/c1ccc(-c2cccc([N+](=O)[O-])c2)o1)NC(=O)c1ccccc1`, the Potency was “inactive”. In the case of `COc1cc2c(cc1OC)CN(C(=O)COc1ccc(C#N)cc1)CC2`, the Potency is reported as inconclusive [inhibitor, partial curve]. With `O=c1oc2ccc3ccccc3c2cc1-c1nnc(Nc2cccc(C(F)(F)F)c2)s1` the Potency was inconclusive [inhibitor, single point]. `O=C(c1cc2ncc(Br)cn2n1)N1CCN(C(=O)c2ccco2)CC1` was tested, and the Potency was inconclusive [inhibitor, partial curve]. For `CCOc1ccc(NCC(=O)N/N=C/C=C/c2ccccc2)cc1`, the Potency was “inactive”. `Oc1ccc(CNc2ccccc2)c2cccnc12` was tested, and the Potency was active: 0.251 µM. `O=C(N1CCOCC1)N1CCN(Cc2ccccc2)CC1` was tested, and the Potency was inconclusive [inhibitor, partial curve]. `COc1ccc(-c2cc(C)no2)cc1S(=O)(=O)N1CCN(C(=O)c2ccco2)CC1` was tested, and the Potency was inconclusive [inhibitor, partial curve]. For `COC(=O)CCC(=O)OC1(C)C(=O)C=C2C=C(C3CC3)N(CC(C)C)C=C2C1=O` (stereo not given), the Potency was “inactive”. With `CC(=O)NC(=S)Nc1ccc(NC(=S)NC(=O)/C=C/c2ccco2)cc1` the Potency was active: 17.8 µM. For `CC1CCc2nc(NC(=O)CN3CCN(Cc4ccc5c(c4)OCO5)CC3)sc2C1` (stereo not given), the Potency was “inactive”. With `S=C(NCCCn1ccnc1)Nc1cccc(Cl)c1` the Potency was inconclusive [inhibitor, partial curve]. In the case of `COc1cc(/C=N\NC(=O)c2ccc(-c3ccccc3)cc2)cc(OC)c1OC(C)=O`, the Potency is reported as inconclusive [inhibitor, full curve, poor fit]. `Nc1cccnc1Sc1cccc(Cl)c1` was tested, and the Potency was inconclusive [inhibitor, partial curve]. In the case of `CCOC(=O)N1CCC(N2C(=O)c3ccc(C(=O)O)cc3C2=O)CC1`, the Potency is reported as inconclusive [inhibitor, single point].
